PubChem BioAssay AID1347043 (National Center for Advancing Translational Sciences (NCATS), 2019)
Screen size: about 76,000 compounds; about 1,900 (2.5%) were called active. This list was built around the results that the source calls inconclusive (neither active nor inactive); the mix of calls is not that of the screen. The call rests on the fitted dose curve; in most records, active means well fitted inhibition curve with a large enough effect; inconclusive means small, poorly fitted or top-dose-only effect; inactive means flat fitted curve, though single readings scatter. Potencies beside an inconclusive call are fits to weak or partial responses and may not hold up.

The molecules below were run against Luciferin 4-monooxygenase (Photinus pyralis) (UniProt P08659) (assay: Firefly luciferase inhibition profiling of diverse chemical library using quantitative high-throughput screening). Conditions: purified P. pyralis luciferase, luminescence, biochemical; series mostly up to 115 µM.
Method in brief: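 Biochemical qHTS: compound (6-point titration) added to 10uM D-luciferin plus 10uM ATP in Tris acetate pH 7.5 buffer with Mg, Tween-20 and BSA, then purified enzyme at 10nM; light output imaged.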
Further: nearly all actives have a fitted effect of over 65% in size.
Potency means the concentration at half of the fitted maximal effect; tags describe the fitted curve by direction and shape.

UniProt P08659, sequence (P08659 whole entry, looked up): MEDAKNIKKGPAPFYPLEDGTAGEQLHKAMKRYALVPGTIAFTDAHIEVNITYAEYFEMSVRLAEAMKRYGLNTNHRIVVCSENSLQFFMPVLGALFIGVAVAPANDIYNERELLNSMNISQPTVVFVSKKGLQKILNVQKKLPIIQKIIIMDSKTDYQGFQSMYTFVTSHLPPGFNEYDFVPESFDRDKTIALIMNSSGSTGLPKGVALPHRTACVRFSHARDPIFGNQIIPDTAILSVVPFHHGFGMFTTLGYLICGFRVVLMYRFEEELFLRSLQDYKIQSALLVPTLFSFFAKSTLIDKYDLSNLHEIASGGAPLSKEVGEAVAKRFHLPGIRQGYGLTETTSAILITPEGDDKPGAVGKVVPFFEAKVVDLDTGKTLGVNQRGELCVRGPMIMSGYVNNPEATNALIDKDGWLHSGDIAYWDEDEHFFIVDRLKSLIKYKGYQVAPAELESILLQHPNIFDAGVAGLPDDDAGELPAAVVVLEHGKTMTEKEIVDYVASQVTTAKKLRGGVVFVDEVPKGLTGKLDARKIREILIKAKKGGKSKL

Structure (SMILES) | Potency
CCn1cc(-c2ccc(Cl)cc2)cc1C(=O)NCC1CCCO1 (stereo unspecified) | inconclusive: 25.1 µM [inhibitor, full curve]
O=C(NC1CCCN(c2cc(-c3ccc(F)cc3)[nH]n2)C1)c1ccc2cc[nH]c2c1 (stereo unspecified) | active: 28.2 µM
c1ccc(-c2cc3c(cn2)CN(Cc2ccc4[nH]ccc4c2)CCN3)cc1 | active: 56.2 µM
Cc1ccc(CNC(=O)c2ccc(-c3ccc(N4CCSCC4)nc3)cc2)o1 | active: 28.2 µM
CC(=O)NC1CCN(Cc2cn(-c3ccccc3F)nc2-c2cc(C)sc2C)C1 (stereo unspecified) | inconclusive: 89.1 µM [inhibitor, single point]
COc1ccc(C(=O)NC2CCCN(c3cc(-c4ccccc4)[nH]n3)C2)cc1OC (stereo unspecified) | active: 28.2 µM
O=C(COc1ccccc1)NCCn1cccc1-c1nc(-c2ccc3c(c2)OCO3)no1 | inconclusive: 20 µM [inhibitor, full curve]
Cc1ccc(C(=O)Nc2ccc3c(N4CCOCC4)ncnc3c2)cc1F | inconclusive: 44.7 µM [inhibitor, partial curve]
COc1ccc(-c2cc3c(=O)n(CCNC(=O)Cc4ccc(C)cc4)ccn3n2)cc1 | inconclusive: 7.94 µM [inhibitor, full curve]
O=C(NCCn1cccc1-c1nc(-c2ccc3c(c2)OCO3)no1)C1(c2ccccc2)CC1 | active: 20 µM
O=C1NCCCCCCN(C(=O)Nc2ccc3c(c2)OCCO3)[C@H]2CCC[C@@H]12 | active: 1.12 µM
c1ccc(OCc2noc(-c3ccc(NCC4CCCCO4)nc3)n2)cc1 (stereo unspecified) | inconclusive: 35.5 µM [inhibitor, partial curve]
Clc1ccc(CCNc2ncncn2)c(Cl)c1 | inactive
CN1CCN(C)c2cnc(-c3ccc(C(=O)N(C)C)cc3)cc2C1 | inconclusive: 70.8 µM [inhibitor, partial curve]
O=C(Nc1cccc(-c2nnc3n2CCCC3)c1)c1ccc(Cl)cc1 | inconclusive: 44.7 µM [inhibitor, partial curve, poor fit]
c1ccc(-c2nnc3ccc(Nc4ccc(N5CCOCC5)cc4)nn23)nc1 | inconclusive: 50.1 µM [inhibitor, partial curve]
c1ccc(Oc2cc3c(cn2)NCCN(CC2CCOCC2)C3)cc1 | inactive
Cc1cc(C(=O)NC2CCc3nnc(C4CC4)n3CC2)c(C)n1Cc1ccco1 (stereo unspecified) | inconclusive: 50.1 µM [inhibitor, partial curve]
CCc1ccc(C(=O)N2CCN(C3(CC)CCN(C(=O)NC)C3)CC2)cc1 (stereo unspecified) | inconclusive: 44.7 µM [inhibitor, partial curve]
Cc1noc(-c2nc(-c3cccc(Br)c3)no2)n1 | inconclusive: 15.8 µM [inhibitor, full curve]
Cc1cccc(-c2cccc(NC(=O)C3CCCN(C(=O)CC(F)(F)F)C3)c2)c1 (stereo unspecified) | active: 11.2 µM
Cc1cc2nc3n(c(=O)c2n1CC(=O)Nc1ccccc1Cl)CCCCC3 | inconclusive: 44.7 µM [inhibitor, partial curve]
Cc1ccc(NC(=O)N2CCc3c(c4ccccc4n3C)C2)cc1 | inconclusive: 44.7 µM [inhibitor, partial curve]
COc1ccc(CN[C@H]2[C@H](O)[C@H](O)C[C@@H]2c2ccccc2)cc1 | inactive

Structure (SMILES) | Potency
COc1ccc(C(=O)Nc2ccc([C@H]3OCC(=O)N(CCN)[C@@H]3CO)cc2)cc1 | inconclusive: 100 µM [inhibitor, partial curve, poor fit]
O=C(c1cc2ccccc2[nH]1)N1CCC(c2noc(C3CC3)n2)C1 (stereo unspecified) | active: 28.2 µM
Cc1cc(NC(=O)N(C)CC2CCOC2)ccc1Br (stereo unspecified) | inconclusive: 44.7 µM [inhibitor, partial curve]
CC(=O)N1CCC(N2C[C@H](O)C[C@H]2c2nc(-c3ccc(C(F)(F)F)cc3)no2)CC1 | inconclusive: 50.1 µM [inhibitor, partial curve]
O=C(NCc1ccccc1Cl)c1csc(N2CCN(c3ccc(F)cc3)CC2)n1 | inactive
CCCc1noc(-c2nc(-c3ccc4c(c3)OCO4)no2)n1 | active: 12.6 µM
Cc1c(-c2ccccc2F)[nH]c2ccc(CNC(=O)CN3CC(=O)NC3=O)cc12 | active: 15.8 µM
COc1cccc(CN2CCCC3(CCN(c4nc5ccccc5o4)C3)C2=O)c1 (stereo unspecified) | inconclusive: 50.1 µM [inhibitor, partial curve, poor fit]
O=C(C1CC1)N1CCCC(Cc2noc(-c3ccccn3)n2)C1 (stereo unspecified) | inconclusive: 28.2 µM [inhibitor, full curve]
COc1cccc(-c2cc3c(=O)n(CCNC(=O)Cc4ccccc4C)ccn3n2)c1 | inconclusive: 10 µM [inhibitor, full curve]
COC(=O)c1cccc(NC(=O)N2CCc3c(nc4cc(-c5ccccc5)[nH]n4c3=O)C2)c1 | inconclusive: 22.4 µM [inhibitor, full curve]
Cc1noc(-c2cccn3c(CNC(=O)c4ccc(C(C)(C)C)cc4)nnc23)n1 | active: 7.94 µM
COc1ccccc1CN1CCOc2cc([S+](=O)([O-])N(C)C)ccc2C1 | inactive
O=C(Nc1cccc(-c2nnc3n2CCCC3)c1)c1ccc2ccccc2n1 | inconclusive: 15.8 µM [inhibitor, partial curve]
Fc1ccc2nc([C@H]3CCN(Cc4ccc(F)c(F)c4)C3)[nH]c2c1 | inconclusive: 79.4 µM [inhibitor, partial curve]
CCNC(=O)N[C@H]1C[C@@H](c2nc(-c3ccc(OC(F)(F)F)cc3)no2)N(C)C1 | inconclusive: 70.8 µM [inhibitor, partial curve]
O=C(c1cc2ccccc2[nH]1)N1CCC2(C1)NC(=O)N(Cc1ccc(F)cc1)C2=O (stereo unspecified) | inactive
CC(C)c1noc(C2CCCN(C(=O)C3(c4ccccc4)CC3)CCC(=O)NCC2)n1 (stereo unspecified) | inactive
Cc1ccc(C2Cn3cnc(C(=O)N4CCC(C(=O)NCc5ccco5)CC4)c3CO2)cc1 (stereo unspecified) | active: 14.1 µM
COc1cccc(C(O)c2nc(C(=O)N3CCN(c4ccccn4)CC3)c(C)o2)c1 (stereo unspecified) | inactive
COc1ccc(C2(C(=O)N3c4ccccc4CC3c3noc(C4CCOCC4)n3)CC2)cc1 (stereo unspecified) | active: 25.1 µM
c1cncc(Nc2cc3c(cn2)CN(CC2CCOCC2)CCN3)c1 | inconclusive: 79.4 µM [inhibitor, partial curve]
CN1C(=O)C2(CCN(C(=O)NC3CCCCC3)CC2)c2ccccc21 | inactive
COc1ccc2nc(CO[C@H]3CN(C(=O)c4ccccc4)C[C@H]3F)[nH]c2c1 | inconclusive: 126 µM [inhibitor, single point]

Structure (SMILES) | Potency
Cc1nn(-c2ccccc2)c(C)c1[C@@H]1C=C[C@@H](NC(=O)c2ccc3c(c2)OCO3)C1 | inconclusive: 100 µM [inhibitor, partial curve, poor fit]
CC(C)CN(CC1CN(C(=O)Cc2cccs2)CCO1)C(=O)c1cccc2ccccc12 (stereo unspecified) | inconclusive: 56.2 µM [inhibitor, partial curve, poor fit]
O=C(NCCc1ccccc1)c1ccc(CN2C(=O)NC3(CCOCC3)C2=O)cc1 | inactive
CCCS(=O)(=O)N1CCC(c2nc(CCOc3ccc(F)cc3)no2)C1 (stereo unspecified) | inactive
CCOc1ccc(CC(=O)N2CCC(Oc3nccnc3N(C)C)C2)cc1 (stereo unspecified) | inconclusive: 50.1 µM [inhibitor, partial curve]
CCOCC1(C)COc2ccc(C(=O)Nc3cccc(OC)c3)cc2N1 (stereo unspecified) | active: 20 µM
C[C@H](C(=O)NCCN1CCOCC1)C1CC[C@@]2(C)Cc3sc(CSc4ccccc4)nc3[C@@H](C)[C@@H]2[C@H]1O (stereo partly specified) | active: 11.2 µM
O=C1NCCCCCCN(Cc2ccncc2)[C@@H]2CN(C(=O)Nc3ccc4c(c3)OCCO4)CC[C@H]12 | active: 11.2 µM
CC(C)(O)CCc1cccc(C(=O)NCC(O)c2ccccc2Cl)c1 (stereo unspecified) | inconclusive: 44.7 µM [inhibitor, partial curve]
COCCc1noc(-c2nc(-c3ccccc3F)no2)n1 | active: 28.2 µM
COc1cccc(-c2nnnn2[C@H]2CO[C@H]3[C@@H]2OC[C@@H]3NC(=O)c2ccc(C)cc2)c1 | inconclusive: 70.8 µM [inhibitor, partial curve]
CCn1nc(CC(C)C)cc1C(=O)N(C)C1CCCN(C2Cc3ccccc3C2)C1 (stereo unspecified) | inactive
CCN1c2cc(C(=O)Nc3cccc(C(=O)OC)c3)ccc2C(=O)N2CCCCCC21 (stereo unspecified) | inactive
O=C(Nc1cccc2ccccc12)O[C@@H]1CO[C@H]2[C@@H]1OC[C@@H]2n1nnnc1Sc1ccccc1 | inactive
Cc1ccc(-c2cc3c(=O)n(CCNC(=O)Cc4cccc(F)c4)ccn3n2)c(C)c1 | active: 3.55 µM
Cc1nn2c(c1-c1cccnc1N1CCOCC1)N(CCCc1ccccc1)CCC2 | inactive
Cc1ccc(-c2cc(C(=O)O)n(C)c2)cc1 | active: 15.8 µM
O=C1CC2(CCN(Cc3cccc(OCc4ccccc4Cl)c3)CC2)CN1 | inconclusive: 50.1 µM [inhibitor, partial curve, poor fit]
O=C(NCc1ccnc2[nH]ccc12)c1ccc(F)cc1 | inconclusive: 63.1 µM [inhibitor, partial curve]
COCC1CN(C(C)=O)CC12CCN(S(=O)(=O)c1cn(C)cn1)CC2 (stereo unspecified) | inactive
O=C(COc1cccc(-c2nnc3n2CCCC3)c1)N1CCN(c2ccccc2F)CC1 | inactive
C=C(C)CN(C)C(=O)c1coc(COc2ccc3c(c2)OCO3)n1 | inconclusive: 50.1 µM [inhibitor, partial curve]
CN1CCCCC(CC(=O)Nc2ccc3c(c2)OCCO3)C1=O (stereo unspecified) | inconclusive: 56.2 µM [inhibitor, partial curve, poor fit]
